# From PubChem BioAssay AID651820 (National Center for Advancing Translational Sciences (NCATS), 2012)
# Hit rate of the full screen: of about 340,000 compounds, about 12,000 (3.5%) were called active. This list was built around the results that the source calls inconclusive (neither active nor inactive); the mix of calls is not that of the screen. Calls come from the whole dose curve; as a rule, active = well fitted inhibition curve with a large enough effect; inconclusive = small, poorly fitted or top-dose-only effect, or another doubt; inactive = no such curve, though single readings can be large or run the other way. No potency is given beside an inconclusive call; the fits are too rough.
# Assay: qHTS Assay for Inhibitors of Hepatitis C Virus (HCV)
# Details: Huh7.5.1 HCVcc-Cre (HCVcc is cell-culture hepatitis C virus) infection, luciferase reporter, 44 h; series mostly up to 41.8 µM
# Method in brief: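 Reporter virus HCVcc-Cre (~0.5 moi) infects cells exposed to compound; seeding density 1,000 cells/well with 4 h settling beforehand. Luminescence, 15 sec read, taken 44 h post-infection following a 15 min RT substrate incubation.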
# Potency is the fitted concentration of half-maximal effect; tags give direction and shape of the fitted curve.
row,Compound,Potency
1,COc1ccc(-c2csc(NC(=O)CN3C(=O)C4CCCCC4C3=O)n2)c(OC)c1 (stereo not drawn),active: 11.2 µM
2,Cc1ncsc1C(=O)N1N=C2/C(=C/c3ccccc3)CCCC2C1c1ccccc1 (stereo not drawn),"inconclusive [inhibitor, partial curve]"
3,Cc1cc(OCc2cc(C(=O)N3CCC(Oc4cccnc4)CC3)no2)cc(C)c1Cl,"inconclusive [inhibitor, single point]"
4,CN1CCN(C(c2cccnc2)c2ccc3cccnc3c2O)CC1 (stereo not drawn),"inconclusive [inhibitor, single point]"
5,O=C(CSC1c2ccccc2-c2ccccc21)N/N=C/c1ccccc1O,"inconclusive [inhibitor, full curve, poor fit]"
6,COC(=O)C1C(=O)c2c([nH]c(C(=O)OCCSC)c2C)CC1C (stereo not drawn),"inconclusive [inhibitor, partial curve]"
7,CN1CCN(C(=O)CCCN2C(=O)/C(=C/c3cccc(Br)c3)SC2=S)CC1,active: 6.31 µM
8,CCOc1ccccc1N1CC(O)=C(c2nc3ccccc3s2)C1=N,"inconclusive [inhibitor, partial curve]"
9,Cc1c(Cl)cccc1NC(=S)NCCc1ccccn1,inactive
10,N/C(=N\OC(=O)c1cccc2ccccc12)c1cccc([N+](=O)[O-])c1,"inconclusive [inhibitor, single point]"
11,Cc1ccccc1NC(=O)c1ccccc1NC(=O)c1ccco1,"inconclusive [inhibitor, partial curve]"
12,O=C(/C=C/c1ccc(Br)cc1)c1ccc(NC2=NCCCS2)cc1,"inconclusive [inhibitor, single point]"
13,Cc1ccccc1-c1cccc([C@@H]2C[C@H]3[C@H](CON3C)CN2S(=O)(=O)c2ccccc2C)c1,"inconclusive [inhibitor, single point]"
14,Fc1ccccc1C1c2[nH]c3ccccc3c2CCN1Cc1ccoc1 (stereo not drawn),inactive
15,CC(C)(C)n1nnnc1C(c1cccnc1)N1CCN(c2cccc(C(F)(F)F)c2)CC1 (stereo not drawn),inactive
16,O=C1c2ccccc2-c2onc3ccc(NCc4ccco4)c1c23,active: 10 µM
17,Cc1ccc(NC(=O)COc2ccc(C(=O)c3ccccc3)cc2)c(O)c1,"inconclusive [inhibitor, single point]"
18,COc1ccc(N2CCN(C(=O)c3cc4c(s3)CCCCC4)CC2)cc1,inactive
19,CCc1nc2sc3c(=O)[nH]cnc3c2c2c1CSC(C)(C)C2,"inconclusive [inhibitor, partial curve, poor fit]"
20,O=C(Cc1cccs1)Nc1cccc(-c2ccc3nncn3n2)c1,inactive
21,COCCNC(=S)N1CCN(S(=O)(=O)c2ccc(Cl)s2)CC1,inactive
22,Cc1ccc(OCC(=O)Nc2ccc3oc(=O)ccc3c2)cc1C,"inconclusive [inhibitor, single point]"
23,Cc1ccc(S(=O)(=O)NCCC(=O)NNC(=O)c2ccccc2O)cc1C,active: 3.16 µM
24,CCOc1ccc(CCNC(=O)CSc2nn(-c3ccc(C)c(Cl)c3)c(=S)s2)cc1OCC,"inconclusive [inhibitor, partial curve]"

row,Compound,Potency
1,CCC(C)NC(=O)CCC(=O)OC1O[C@H]2OC3(C)CC[C@H]4[C@H](C)CCC(C1C)C24OO3 (stereo partly drawn),"inconclusive [inhibitor, partial curve]"
2,COc1ccccc1NS(=O)(=O)c1cccc(NC(=O)Cc2cccs2)c1,"inconclusive [inhibitor, single point]"
3,C=CCN(N=Nc1cccc([N+](=O)[O-])c1)c1cccc([N+](=O)[O-])c1,"inconclusive [inhibitor, full curve]"
4,O=c1[nH]c(C(F)(F)F)nc2ccc3ccccc3c12,"inconclusive [inhibitor, single point]"
5,COc1ccc(CNC(=O)CN2C(=O)CSc3ccc(S(=O)(=O)N4CCCCC4)cc32)cc1,"inconclusive [inhibitor, full curve, poor fit]"
6,CC1CCCC(NC(=O)CSc2ncccc2C(=O)O)C1C (stereo not drawn),"inconclusive [inhibitor, single point]"
7,COC(=O)c1ccc(Cn2nc(-c3ccc(C)cc3)ccc2=O)cc1,inactive
8,CCN(CC)S(=O)(=O)c1ccc(/C=C/C(=O)Nc2cccc(F)c2)cc1,active: 12.6 µM
9,CCc1sc(C(=O)Nc2ncccc2C)cc1C,inactive
10,CCOc1ccc(S(=O)(=O)N2CCC(C(=O)NCC3CCCO3)CC2)cc1Cl (stereo not drawn),inactive
11,Cc1ccccc1C(=O)c1cccn1CC(=O)NCCC1=CCCCC1,inactive
12,O=C(CSc1nc(=O)n(CCCN2CCOCC2)c2c1CCCC2)Nc1ccc(Cl)cc1,"inconclusive [inhibitor, single point]"
13,COc1cccc(NC2=NC3(CCCCC3)N=C(N)N2)c1,inactive
14,Cc1csc(NC(=O)C2CCN(S(=O)(=O)c3ccc4c(c3)oc(=O)n4C)CC2)n1,inactive
15,O=C(c1ccco1)N1CCN(CC(O)COc2ccc3oc4ccccc4c3c2)CC1 (stereo not drawn),active: 12.6 µM
16,CCOC(=O)C1CCCN(C/C=C/c2ccccc2)C1 (stereo not drawn),inactive
17,Nc1nnc(SCC(=O)Nc2ccc(N3CCOCC3)c(Cl)c2)s1,"inconclusive [inhibitor, single point]"
18,COc1ccc(Cn2nnnc2C(c2ccc(F)cc2)N2CCN(C3CCCC3)CC2)cc1 (stereo not drawn),"inconclusive [inhibitor, partial curve]"
19,Cc1ccc(CN2C(=O)CC(Nc3ccc(N4CCOCC4)cc3)C2=O)cc1 (stereo not drawn),inactive
20,COC(=O)c1c(NC(=O)c2ccn(C)n2)sc2c1CCC2,active: 2.82 µM
21,COc1cc(NC(=S)Nc2ccc3c(c2)OCCO3)cc(OC)c1OC,inactive
22,COc1ccc(-n2nnnc2SCC(=O)Nc2ccc3c(c2)OCCO3)c(OC)c1,"inconclusive [inhibitor, partial curve]"
23,O=C(Nc1cccc(C(=O)N2CCCCCC2)c1)c1ccco1,inactive
24,CCN(CC)C(=O)Oc1ccc2c(c1)O/C(=C\c1ccco1)C2=O,"inconclusive [inhibitor, partial curve]"
